# Test results: PMC4336329 (PLoS ONE, 2015)
# About 2,200 (0.71%) of roughly 310,000 compounds showed an effect of 50% or more. The effect is printed as a negative number. The list shows a part of the results.
# Target: human ether-à-go-go-related gene (hERG) potassium channel (human, UniProt Q12809)
# Experiment: primary screen, population patch clamp on CHO cells stably expressing hERG
# Chain of human ether-à-go-go-related gene (hERG) potassium channel (Q12809 whole entry, looked up): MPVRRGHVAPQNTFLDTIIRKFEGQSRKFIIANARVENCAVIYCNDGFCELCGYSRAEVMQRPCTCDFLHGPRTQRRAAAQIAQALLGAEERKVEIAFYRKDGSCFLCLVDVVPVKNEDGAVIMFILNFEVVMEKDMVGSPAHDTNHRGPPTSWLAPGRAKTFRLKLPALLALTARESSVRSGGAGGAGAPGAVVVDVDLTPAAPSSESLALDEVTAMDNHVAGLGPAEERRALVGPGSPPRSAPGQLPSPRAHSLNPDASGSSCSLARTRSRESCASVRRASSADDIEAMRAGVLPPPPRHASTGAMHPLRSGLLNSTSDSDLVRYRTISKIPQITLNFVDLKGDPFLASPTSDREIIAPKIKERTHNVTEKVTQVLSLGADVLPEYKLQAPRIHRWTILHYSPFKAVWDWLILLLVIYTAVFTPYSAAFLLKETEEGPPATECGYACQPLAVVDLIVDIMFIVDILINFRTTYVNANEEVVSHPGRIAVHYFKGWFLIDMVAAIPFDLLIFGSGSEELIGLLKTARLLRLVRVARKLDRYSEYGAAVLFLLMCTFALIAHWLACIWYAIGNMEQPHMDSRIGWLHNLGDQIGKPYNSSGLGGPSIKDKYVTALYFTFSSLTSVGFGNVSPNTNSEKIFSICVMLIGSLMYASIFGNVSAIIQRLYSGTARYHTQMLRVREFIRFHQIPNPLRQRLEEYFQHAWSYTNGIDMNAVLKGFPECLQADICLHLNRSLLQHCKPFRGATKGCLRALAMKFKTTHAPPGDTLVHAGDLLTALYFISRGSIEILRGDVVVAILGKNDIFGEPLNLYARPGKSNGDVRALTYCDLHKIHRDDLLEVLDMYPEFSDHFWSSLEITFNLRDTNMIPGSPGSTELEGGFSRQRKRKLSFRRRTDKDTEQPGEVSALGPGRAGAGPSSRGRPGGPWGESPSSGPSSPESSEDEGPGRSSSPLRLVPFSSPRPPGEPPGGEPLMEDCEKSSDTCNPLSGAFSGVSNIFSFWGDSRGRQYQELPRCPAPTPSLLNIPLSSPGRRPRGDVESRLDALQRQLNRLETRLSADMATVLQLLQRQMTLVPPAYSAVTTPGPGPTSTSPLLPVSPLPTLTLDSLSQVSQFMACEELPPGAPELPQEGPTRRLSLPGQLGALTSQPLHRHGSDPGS
row,Structure (SMILES),"hERG current change (%, negative = inhibition) at 1uM [%]"
1,CCC(C)(C)NC(=O)C(c1ccccn1)N(C(=O)c1csnn1)C1CCCCC1 (centres unmarked),6.8
2,O=C(Nc1ccc(Cl)cc1)Nc1nnc(CSCc2ccc(Cl)cc2)s1,15.1
3,O=C(CN1C(=O)c2ccccc2C1=O)Nc1ccccc1F,-2.95
4,O=C(CCS(=O)(=O)Cc1ccccc1)Nc1ncc([N+](=O)[O-])s1,10.2
5,C=CCn1c(Cc2cccc3ccccc23)n[nH]c1=S,6.39
6,O=C1N=c2ccc([N+](=O)[O-])cc2=C1c1sc(=O)[nH]c1O,12.1
7,Cc1[nH]n(-c2ccccc2)c(=O)c1C=NC1CCCCCC1,9.97
8,Cc1cccc(C(=O)O/N=C(\N)c2ccccn2)c1,1.43
9,Cc1nn(C)cc1CNC(=O)C1C2CCC(C2)C1C(=O)O (centres unmarked),17.5
10,Cc1cccc(OCC(=O)Nc2cccc(C(=O)Nc3ccccc3C(=O)O)c2)c1,14.2
11,COc1cccc(CC(NC(C)=O)C(=O)NC2CCN(S(=O)(=O)c3ccc(NC(C)=O)cc3)CC2)c1 (centres unmarked),9.93
12,COc1ccc(OC)c(/C=C/C(=O)N(C)CC(=O)Nc2ccc(N3CCOCC3)cc2)c1,-0.518
13,N#Cc1ccc(CSc2nnc(-c3cccc(S(=O)(=O)N4CCCCC4)c3)o2)cc1,10.9
14,CCCCNC(=O)c1ccc(CS(=O)(=O)Cc2ccccc2F)o1,8.25
15,Cn1cccc1C(=O)NC(=O)COC(=O)c1cc(Cl)ccc1[N+](=O)[O-],10.8
16,CN1CCN(c2ccc([N+](=O)[O-])cc2C(=O)c2ccccc2)CC1,-17.5
17,CC(C)NC(=O)c1ccc(C2SCC(=O)N2Cc2ccccc2)cc1 (centres unmarked),8.98
18,O=C(O)c1cccnc1Sc1ccccc1,15
19,N#CCCn1cnc2c(=S)nc[nH]c21,1.34
20,CCNc1nc2nonc2nc1NCC,-6.84
21,CCC1=C(OC(=O)N(CC)CC)N2C(=O)OC(=NCC3CC3)[C@]2(C)[C@H]2C1=CC[C@H]1C(=O)N(CC)C(=O)[C@H]12,16.9
22,COc1cccc(OCC(O)CN2CCN(CCN3C(=O)c4cccc5cccc(c45)C3=O)CC2)c1.Cl (centres unmarked),-18.3

row,Structure (SMILES),"hERG current change (%, negative = inhibition) at 1uM [%]"
1,CCNC(=O)COc1ccc(/C=N/NC(=O)c2cccnc2)cc1OC,25.3
2,CCn1ncc(C2=NOC(C(=O)Nc3cc(OC)c(Cl)cc3OC)C2)c1C (centres unmarked),-1.93
3,CCOc1cc(S(=O)(=O)NC2CC2)c(OCC)cc1-n1cnnn1,-7.47
4,CC(C)CC(=O)NC(c1ccccc1)c1c(O)ccc2ccccc12 (centres unmarked),14
5,O=C(O)C1CCCCC1C(=O)NCCCc1ccccc1 (centres unmarked),1.59
6,Cc1cccc(-n2nnc3cnn(C)c3c2=O)c1,7.4
7,CCCCN(CCCC)CCNC(=O)CN1C(=O)COc2ccc(S(=O)(=O)N3CCC(C)CC3)cc21,-28.6
8,CNC(=O)c1cc2cc(OC)ccc2n1CCN(Cc1ccccc1)Cc1ccccc1.Cl,11.6
9,O=C(/C(=N\Nc1ccccc1)Sc1nnnn1-c1ccccc1)c1ccccc1,10.1
10,CC(C)c1ccc(/C=N\NC(=O)c2ccc(Cn3cccn3)o2)cc1,-3.86
11,COc1ccc(CNC(=O)C2CCN(S(=O)(=O)N3CCCCC3)CC2)cc1,10.4
12,Cc1ccc(C)c(OCC(=O)N2CCN(C(=O)c3ccco3)CC2)c1,1.09
13,CN1CCCN(S(=O)(=O)c2cccc(Cl)c2Cl)CC1.Cl,5.98
14,COc1cccc(CNc2ccc([N+](=O)[O-])c(NCC(=O)O)n2)c1,12
15,Cc1nnc2sc(SCC(=O)Nc3nccs3)nn2c1=O,25.4
16,S=C(N/N=C/c1cccc2ccccc12)Nc1cccc(Cl)c1,11.3
17,COCCN1C(=O)/C(=C/c2ccc(N3CCCC3)cc2C)SC1=S,7.09
18,COC(=O)c1cc(C(=O)OC)[nH]n1,17.5
19,Cc1ccc(OC(=O)CCc2c(C)nc3ncnn3c2C)cc1,6.69
20,N#C/C(=C/c1ccccc1OCc1ccc(F)cc1)c1ccc(C(=O)O)cc1,16.7
21,CN(C)CCC1CCN(c2cc(C#N)c(C#N)cc2[N+](=O)[O-])CC1,-5.76
22,O=C1CCc2cc(S(=O)(=O)NC(Cc3ccccc3)C(=O)NC3CCCC3)ccc2N1 (centres unmarked),15.3

row,Structure (SMILES),"hERG current change (%, negative = inhibition) at 1uM [%]"
1,C#CCOCCOCCOCCNc1nc(N2CCN(C(=O)[C@H]([C@@H](C)CC)n3cc([C@@H](N)CO)nn3)CC2)nc(N2CCN(C(=O)[C@H](CCCCN)n3cc([C@@H](N)CC(C)C)nn3)CC2)n1.Cl,6.17
2,CCC(=O)NCCNc1nc2cc(C)cc(C)c2cc1C#N,32.9
3,Cc1[nH][nH]c(=O)c1C(c1cc([N+](=O)[O-])ccc1O)c1c(C)[nH][nH]c1=O,4.75
4,COC(=O)C1=C(c2ccc(F)cc2OCc2ccccc2)C[C@@H]2CC[C@H]1N2C(=O)NCc1cccc(F)c1,22.8
5,O=C(N[C@@H](Cc1ccccc1)C(=O)O)c1c(F)c(F)c(F)c(F)c1F,9
6,C=CCn1c(SCc2nc3ccccc3[nH]2)nnc1-c1ccncc1,-1.13
7,Cc1cc(C)nc(NC(=O)NS(=O)(=O)N2CCCCCC2)n1,6.38
8,Cc1ccc(C(=O)NCCCC(=O)O)o1,3.19
9,COCCn1c(-c2cccs2)nc2nc3ccccc3nc21,9.75
10,CCCC[C@@H]1C[C@H]1[C@@H](NC(=O)c1ccccc1)c1ccccc1C(F)(F)F,8.14
11,COc1ccc(-c2cc(C(=O)Nc3c(C)nn(Cc4ccc(Cl)cc4)c3C)no2)cc1,-0.582
12,COc1ccccc1C(=O)N/N=C(\C)CC(=O)Nc1ccc(Nc2ccccc2)cc1,13.2
13,O=C(CC(NCCN1CCOCC1)C(=O)O)Nc1cccc(Cl)c1 (centres unmarked),21.5
14,Cc1ccccc1C(=O)NC(=S)Nc1ccc(N2CCOCC2)cc1,8.54
15,Cc1ccc(-n2ncc3c(NCCCN4CCOCC4)ncnc32)c(C)c1,3.5
16,O=C(Nc1cc(C(F)(F)F)ccc1N1CCOCC1)c1ccc(F)cc1,10.8
17,COC(=O)c1sc(NC(C)=O)c(C(=O)OC)c1C,3.6
18,CC(=O)C1=NN(c2ccccc2)C(c2cccs2)N1c1ccc(N(C)C)cc1 (centres unmarked),7.46
19,O=C(O)/C=C/C(=O)Nc1cccc(C(F)(F)F)c1,9.55
20,O=C(CS(=O)(=O)c1cn(Cc2cccc(F)c2)c2ccccc12)N1CCCCC1,0.563
21,CCOC(=O)Cc1csc(NC(=O)/C=C/c2ccc(Br)o2)n1,-4.46
22,C=C1CCC[C@]2(C)C[C@H]3OC(=O)C(CN4CCOCC4)[C@H]3C[C@@H]12 (some centres unmarked),19.6

row,Structure (SMILES),"hERG current change (%, negative = inhibition) at 1uM [%]"
1,O=[N+]([O-])c1cc(S(=O)(=O)N2CCOCC2)ccc1OCc1cccc(Cl)c1,4.08
2,Cc1ccc(S(=O)(=O)NCC2CCC(C(=O)N3CCC4(CC3)OCCO4)CC2)cc1 (centres unmarked),0.834
3,CCc1ccc2nc(-c3cccc(C)c3)nc(SCC(=O)NCC3CCCO3)c2c1 (centres unmarked),-9.99
4,CC(C)C(NC(=O)c1ccccc1)C(=O)NC1CCCc2ccccc21 (centres unmarked),12.3
5,COCCCNC(=O)c1ccc(-c2nc3ccccc3nc2-c2ccccc2)cc1,8.01
6,Cc1cc(/C=C2/NC(=O)N(Cc3ccccc3F)C2=O)c(C)n1C(C)C,4.27
7,C1CN(c2nc3nonc3nc2N2CCSCC2)CCO1,6
8,CCOc1ccc(NC(=O)NC(=O)N(C(C)C)S(C)(=O)=O)cc1,14.7
9,Cn1nnc(NC(=O)c2ccc3ccccc3c2)n1,13.3
10,COc1ccc(N2C(=O)CS/C2=C\[N+](=O)[O-])cc1,11.7
11,CCN(CC)S(=O)(=O)c1cc([N+](=O)[O-])ccc1N1CCC(C(N)=O)CC1,-0.296
12,CC(C)COP(=O)(OCC(C)C)C(O)c1ccc(N(C)C)cc1 (centres unmarked),13.5
13,Cc1cc(C)c2nc(N3CCCN(C(=O)c4cnccn4)CC3)c(C#N)cc2c1,0.686
14,Cc1ccc2nc(N3CCN(C(=O)c4ccco4)CC3)c3nncn3c2c1,10.3
15,C/C(=N\Nc1ccc(Cl)c(C(=O)O)c1)c1ccc(N2CCOCC2)cc1,15.8
16,OCc1ccc(-c2nn(Cc3ccccc3)c3ccccc23)o1,7.57
17,Cc1ccc(/C=C/C(=O)Nc2ccc(O)c3c(=O)cc(-c4ccccc4Cl)oc23)cc1,11.7
18,CCc1ccc(C2c3[nH]c4ccccc4c3CCN2C(=O)c2cc[n+]([O-])cc2)cc1 (centres unmarked),11.2
19,Cc1cccc(C(=O)NC(NCc2ccco2)C(Cl)(Cl)Cl)c1 (centres unmarked),8.24
20,Cc1cccc(N(C)C(=O)c2coc(=O)c3ccccc23)c1,18.2
